± gives the standard deviation of the averaged measurements. Laboratory Escherichia coli strains with one amino-acid change in an essential protein, pooled on minimal glucose agar with carbenicillin or gentamicin at twice the control MIC (plus kanamycin and chloramphenicol for the plasmids), 48 h. Fold change of barcode share against drug-free plates; higher = less susceptible. Active = above 20 in both replicates (the paper's putatively resistant). '<' = one read or none on drug, '>' = one read or none on a drug-free plate. Shares are relative, so most strains fall below 1 when a few take over. Listed are strains with at least 15 reads on both drug-free plates, and hits; most hits rest on fewer reference reads. Replicate rank correlation about 0.5. Edits are read from barcodes.
Molecular target: Escherichia coli (laboratory strain)
Assay: barcode share on antibiotic plates over drug-free plates; higher = less susceptible
Conditions: antibiotic: gentamicin; 2× MIC (MIC 0.45 µg/mL)
Procedure: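 A pool of E. coli strains, each edited to carry one amino-acid change in an essential protein, was grown for 48 h on minimal glucose agar with or without antibiotic; strain barcodes were sequenced; mean of two replicates.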

Row | Protein | fold change of barcode share
1 | leuA I6W (protein) MSQQVWIFDTTLRDGEQALQASLSVKEKLQIALALERMGVDVMEVGFPVSSPGDFESVQTIARQVKNSRVCALARCVEKDIDVAAESLKVAEAFRIHTFIATSPMHIATKLRSTLDEVIERAIYMVKRARNYTDDVEFSCEDAGRTPIADLARVVEAAINAGATTINIPDTVGYTMPFEFAGIISGLYERVPNIDKAIISVHTHDDLGLAVGNSLAAVHAGARQVEGAMNGIGERAGNCSLEEVIMAIKVRKDILNVHTAINHQEIWRTSQLVSQICNMPIPANKAIVGSGAFAHSSGIHQDGVLKNRENYEIMTPESIGLNQIQLNLTSRSGRAAVKHRMDEMGYKESEYNLDNLYDAFLKLADKKGQVFDYDLEALAFIGKQQEEPEHFRLDYFSVQSGSNDIATAAVKLACGEEVKAEAANGNGPVDAVYQAINRITEYNVELVKYSLTAKGHGKDALGQVDIVANYNGRRFHGVGLATDIVESSAKAMVHVLNNIWRAAEVEKELQRKAQHNENNKETV | < 0.018
2 | leuA I7A (protein) MSQQVIAFDTTLRDGEQALQASLSVKEKLQIALALERMGVDVMEVGFPVSSPGDFESVQTIARQVKNSRVCALARCVEKDIDVAAESLKVAEAFRIHTFIATSPMHIATKLRSTLDEVIERAIYMVKRARNYTDDVEFSCEDAGRTPIADLARVVEAAINAGATTINIPDTVGYTMPFEFAGIISGLYERVPNIDKAIISVHTHDDLGLAVGNSLAAVHAGARQVEGAMNGIGERAGNCSLEEVIMAIKVRKDILNVHTAINHQEIWRTSQLVSQICNMPIPANKAIVGSGAFAHSSGIHQDGVLKNRENYEIMTPESIGLNQIQLNLTSRSGRAAVKHRMDEMGYKESEYNLDNLYDAFLKLADKKGQVFDYDLEALAFIGKQQEEPEHFRLDYFSVQSGSNDIATAAVKLACGEEVKAEAANGNGPVDAVYQAINRITEYNVELVKYSLTAKGHGKDALGQVDIVANYNGRRFHGVGLATDIVESSAKAMVHVLNNIWRAAEVEKELQRKAQHNENNKETV | < 0.018
3 | leuA I100Q (protein) MSQQVIIFDTTLRDGEQALQASLSVKEKLQIALALERMGVDVMEVGFPVSSPGDFESVQTIARQVKNSRVCALARCVEKDIDVAAESLKVAEAFRIHTFQATSPMHIATKLRSTLDEVIERAIYMVKRARNYTDDVEFSCEDAGRTPIADLARVVEAAINAGATTINIPDTVGYTMPFEFAGIISGLYERVPNIDKAIISVHTHDDLGLAVGNSLAAVHAGARQVEGAMNGIGERAGNCSLEEVIMAIKVRKDILNVHTAINHQEIWRTSQLVSQICNMPIPANKAIVGSGAFAHSSGIHQDGVLKNRENYEIMTPESIGLNQIQLNLTSRSGRAAVKHRMDEMGYKESEYNLDNLYDAFLKLADKKGQVFDYDLEALAFIGKQQEEPEHFRLDYFSVQSGSNDIATAAVKLACGEEVKAEAANGNGPVDAVYQAINRITEYNVELVKYSLTAKGHGKDALGQVDIVANYNGRRFHGVGLATDIVESSAKAMVHVLNNIWRAAEVEKELQRKAQHNENNKETV | < 0.0143
4 | leuA I198Q (protein) MSQQVIIFDTTLRDGEQALQASLSVKEKLQIALALERMGVDVMEVGFPVSSPGDFESVQTIARQVKNSRVCALARCVEKDIDVAAESLKVAEAFRIHTFIATSPMHIATKLRSTLDEVIERAIYMVKRARNYTDDVEFSCEDAGRTPIADLARVVEAAINAGATTINIPDTVGYTMPFEFAGIISGLYERVPNIDKAQISVHTHDDLGLAVGNSLAAVHAGARQVEGAMNGIGERAGNCSLEEVIMAIKVRKDILNVHTAINHQEIWRTSQLVSQICNMPIPANKAIVGSGAFAHSSGIHQDGVLKNRENYEIMTPESIGLNQIQLNLTSRSGRAAVKHRMDEMGYKESEYNLDNLYDAFLKLADKKGQVFDYDLEALAFIGKQQEEPEHFRLDYFSVQSGSNDIATAAVKLACGEEVKAEAANGNGPVDAVYQAINRITEYNVELVKYSLTAKGHGKDALGQVDIVANYNGRRFHGVGLATDIVESSAKAMVHVLNNIWRAAEVEKELQRKAQHNENNKETV | < 0.0182
5 | leuA I199P (protein) MSQQVIIFDTTLRDGEQALQASLSVKEKLQIALALERMGVDVMEVGFPVSSPGDFESVQTIARQVKNSRVCALARCVEKDIDVAAESLKVAEAFRIHTFIATSPMHIATKLRSTLDEVIERAIYMVKRARNYTDDVEFSCEDAGRTPIADLARVVEAAINAGATTINIPDTVGYTMPFEFAGIISGLYERVPNIDKAIPSVHTHDDLGLAVGNSLAAVHAGARQVEGAMNGIGERAGNCSLEEVIMAIKVRKDILNVHTAINHQEIWRTSQLVSQICNMPIPANKAIVGSGAFAHSSGIHQDGVLKNRENYEIMTPESIGLNQIQLNLTSRSGRAAVKHRMDEMGYKESEYNLDNLYDAFLKLADKKGQVFDYDLEALAFIGKQQEEPEHFRLDYFSVQSGSNDIATAAVKLACGEEVKAEAANGNGPVDAVYQAINRITEYNVELVKYSLTAKGHGKDALGQVDIVANYNGRRFHGVGLATDIVESSAKAMVHVLNNIWRAAEVEKELQRKAQHNENNKETV | < 0.0187
6 | leuD V12P (protein) MAEKFIKHTGLPVPLDAANVDTDAIIPKQFLQKVTRTGFGAHLFNDWRFLDEKGQQPNPDFVLNFPQYQGASILLARENFGCGSSREHAPWALTDYGFKVVIAPSFADIFYGNSFNNQLLPVKLSDAEVDELFALVKANPGIHFDVDLEAQEVKAGEKTYRFTIDAFRRHCMMNGLDSIGLTLQHDDAIAAYEAKQPAFMN | < 0.018
7 | leuD L63D (protein) MAEKFIKHTGLVVPLDAANVDTDAIIPKQFLQKVTRTGFGAHLFNDWRFLDEKGQQPNPDFVDNFPQYQGASILLARENFGCGSSREHAPWALTDYGFKVVIAPSFADIFYGNSFNNQLLPVKLSDAEVDELFALVKANPGIHFDVDLEAQEVKAGEKTYRFTIDAFRRHCMMNGLDSIGLTLQHDDAIAAYEAKQPAFMN | 0.137 ± 0.028
8 | ligA V556D (protein) MESIEQQLTELRTTLRHHEYLYHVMDAPEIPDAEYDRLMRELRELETKHPELITPDSPTQRVGAAPLAAFSQIRHEVPMLSLDNVFDEESFLAFNKRVQDRLKNNEKVTWCCELKLDGLAVSILYENGVLVSAATRGDGTTGEDITSNVRTIRAIPLKLHGENIPARLEVRGEVFLPQAGFEKINEDARRTGGKVFANPRNAAAGSLRQLDPRITAKRPLTFFCYGVGVLEGGELPDTHLGRLLQFKKWGLPVSDRVTLCESAEEVLAFYHKVEEDRPTLGFDIDGVVIKVNSLAQQEQLGFVARAPRWAVAFKFPAQEQMTFVRDVEFQVGRTGAITPVARLEPVHVAGVLVSNATLHNADEIERLGLRIGDKVVIRRAGDVIPQVVNVVLSERPEDTREVVFPTHCPVCGSDVERVEGEAVARCTGGLICGAQRKESLKHFVSRRAMDVDGMGDKIIDQLVEKEYVHTPADLFKLTAGKLTGLERMGPKSAQNVVNALEKAKETTFARFLYALGIREVGEATAAGLAAYFGTLEALEAASIEELQKVPDVGIVDASHVHNFFAEESNRNVISELLAEGVHWPAPIVINAEEIDSPFAGKTVVLTGSLSQMSRDDAKARLVELGAKVAGSVSKKTDLVIAGEAAGSKLAKAQELGIEVIDEAEMLRLLGS | < 0.0221
9 | ligA V288A (protein) MESIEQQLTELRTTLRHHEYLYHVMDAPEIPDAEYDRLMRELRELETKHPELITPDSPTQRVGAAPLAAFSQIRHEVPMLSLDNVFDEESFLAFNKRVQDRLKNNEKVTWCCELKLDGLAVSILYENGVLVSAATRGDGTTGEDITSNVRTIRAIPLKLHGENIPARLEVRGEVFLPQAGFEKINEDARRTGGKVFANPRNAAAGSLRQLDPRITAKRPLTFFCYGVGVLEGGELPDTHLGRLLQFKKWGLPVSDRVTLCESAEEVLAFYHKVEEDRPTLGFDIDGVAIKVNSLAQQEQLGFVARAPRWAVAFKFPAQEQMTFVRDVEFQVGRTGAITPVARLEPVHVAGVLVSNATLHNADEIERLGLRIGDKVVIRRAGDVIPQVVNVVLSERPEDTREVVFPTHCPVCGSDVERVEGEAVARCTGGLICGAQRKESLKHFVSRRAMDVDGMGDKIIDQLVEKEYVHTPADLFKLTAGKLTGLERMGPKSAQNVVNALEKAKETTFARFLYALGIREVGEATAAGLAAYFGTLEALEAASIEELQKVPDVGIVVASHVHNFFAEESNRNVISELLAEGVHWPAPIVINAEEIDSPFAGKTVVLTGSLSQMSRDDAKARLVELGAKVAGSVSKKTDLVIAGEAAGSKLAKAQELGIEVIDEAEMLRLLGS | 0.0269 ± 0.024
10 | ligA I289A (protein) MESIEQQLTELRTTLRHHEYLYHVMDAPEIPDAEYDRLMRELRELETKHPELITPDSPTQRVGAAPLAAFSQIRHEVPMLSLDNVFDEESFLAFNKRVQDRLKNNEKVTWCCELKLDGLAVSILYENGVLVSAATRGDGTTGEDITSNVRTIRAIPLKLHGENIPARLEVRGEVFLPQAGFEKINEDARRTGGKVFANPRNAAAGSLRQLDPRITAKRPLTFFCYGVGVLEGGELPDTHLGRLLQFKKWGLPVSDRVTLCESAEEVLAFYHKVEEDRPTLGFDIDGVVAKVNSLAQQEQLGFVARAPRWAVAFKFPAQEQMTFVRDVEFQVGRTGAITPVARLEPVHVAGVLVSNATLHNADEIERLGLRIGDKVVIRRAGDVIPQVVNVVLSERPEDTREVVFPTHCPVCGSDVERVEGEAVARCTGGLICGAQRKESLKHFVSRRAMDVDGMGDKIIDQLVEKEYVHTPADLFKLTAGKLTGLERMGPKSAQNVVNALEKAKETTFARFLYALGIREVGEATAAGLAAYFGTLEALEAASIEELQKVPDVGIVVASHVHNFFAEESNRNVISELLAEGVHWPAPIVINAEEIDSPFAGKTVVLTGSLSQMSRDDAKARLVELGAKVAGSVSKKTDLVIAGEAAGSKLAKAQELGIEVIDEAEMLRLLGS | < 0.014
11 | ligA I289W (protein) MESIEQQLTELRTTLRHHEYLYHVMDAPEIPDAEYDRLMRELRELETKHPELITPDSPTQRVGAAPLAAFSQIRHEVPMLSLDNVFDEESFLAFNKRVQDRLKNNEKVTWCCELKLDGLAVSILYENGVLVSAATRGDGTTGEDITSNVRTIRAIPLKLHGENIPARLEVRGEVFLPQAGFEKINEDARRTGGKVFANPRNAAAGSLRQLDPRITAKRPLTFFCYGVGVLEGGELPDTHLGRLLQFKKWGLPVSDRVTLCESAEEVLAFYHKVEEDRPTLGFDIDGVVWKVNSLAQQEQLGFVARAPRWAVAFKFPAQEQMTFVRDVEFQVGRTGAITPVARLEPVHVAGVLVSNATLHNADEIERLGLRIGDKVVIRRAGDVIPQVVNVVLSERPEDTREVVFPTHCPVCGSDVERVEGEAVARCTGGLICGAQRKESLKHFVSRRAMDVDGMGDKIIDQLVEKEYVHTPADLFKLTAGKLTGLERMGPKSAQNVVNALEKAKETTFARFLYALGIREVGEATAAGLAAYFGTLEALEAASIEELQKVPDVGIVVASHVHNFFAEESNRNVISELLAEGVHWPAPIVINAEEIDSPFAGKTVVLTGSLSQMSRDDAKARLVELGAKVAGSVSKKTDLVIAGEAAGSKLAKAQELGIEVIDEAEMLRLLGS | < 0.0199

From the supplement of paper PMC11876631
